The campaign covered roughly 340,000 compounds. About 6,900 (2%) were called active. Rule as the data show it: active = inhibition above about 30%; inactive = below that, where a call was filed. Only a part is listed here, and it is no random draw. Entries without a call were filed so in the source.
The compounds below were run against D(2) dopamine receptor (Homo sapiens) (UniProt P14416) (assay: HTS Assay for Allosteric Antagonists of the Human D2 Dopamine Receptor: Primary Screen for Antagonists). Conditions: HEK293 TREx D2 cells, calcium flux, dopamine EC80; at 10 µM; stronger effect = higher value.
Chain of UniProt P14416 (P14416 whole entry, looked up): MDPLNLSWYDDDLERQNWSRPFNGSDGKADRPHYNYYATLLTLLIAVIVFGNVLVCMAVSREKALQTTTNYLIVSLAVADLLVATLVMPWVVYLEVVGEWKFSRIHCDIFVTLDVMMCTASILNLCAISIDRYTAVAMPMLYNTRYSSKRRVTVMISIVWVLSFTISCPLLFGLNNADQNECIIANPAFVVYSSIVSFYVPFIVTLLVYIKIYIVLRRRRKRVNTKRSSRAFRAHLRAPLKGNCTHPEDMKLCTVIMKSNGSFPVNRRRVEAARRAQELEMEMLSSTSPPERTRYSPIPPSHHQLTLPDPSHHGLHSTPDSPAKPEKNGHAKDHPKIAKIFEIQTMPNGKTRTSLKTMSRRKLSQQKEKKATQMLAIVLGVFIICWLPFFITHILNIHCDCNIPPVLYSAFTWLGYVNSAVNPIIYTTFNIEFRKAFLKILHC
Procedure, shortened: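 Antagonism is scored as inhibition of an EC80 dopamine-evoked calcium signal in a force-coupled, tetracycline-inducible HEK293 T-REx D2 line, with compound present 180 s before agonist.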
Also: 0% is about no effect.

Compound	inhibition
CCOC(=O)c1c(C)[nH]c(C)c1S(=O)(=O)NCC1CCN(Cc2cccc(Cl)c2)CC1	active: 78%
CCc1ccccc1NC(=O)c1sc2nc(C)cc(COC)c2c1N	-0.769%
CC(C)(C)C1CCc2nc(NC(=O)c3ccc([N+](=O)[O-])cc3)sc2C1 (configuration not stated)	1.74%
Cc1ccc(C(=O)O)cc1NC1(c2ccccc2)C(=O)c2ccccc2C1=O	10.3%
COc1ccc2oc(-c3ccc(C)c(NC(=O)c4ccc(-c5ccccc5[N+](=O)[O-])o4)c3)nc2c1	1.71%
Cc1cccc(-c2nc3c(cnn3-c3ccccc3)c(=O)n2-c2ccc(Br)cc2)c1	-3.41%
Cc1c(Cl)cccc1NC(=O)CSc1nc2ncccc2o1	9.74%
OCC1(CCc2ccccc2)CCCN(CCCc2ccccc2)C1 (configuration not stated)	active: 76.4%
CCn1ccc2c(OCC(=O)NCc3ccccc3)cccc2c1=O	4.03%
CCCN1CCN(c2cc3c(cc2F)c(=O)c(S(=O)(=O)c2ccc(CC)cc2)cn3CC)CC1	-16%
Cc1ccc(S(=O)(=O)c2[nH]c(-c3ccccc3)nc2SCCC(=O)O)cc1	9.01%
Cc1cccc(N(Cc2cc3ccccc3[nH]c2=O)C(=O)c2cccc(Cl)c2)c1	-4.25%
Cc1ccc(N2CC(NC(=O)CCc3ccccc3)CC2=O)cc1C (configuration not stated)	19.8%
CCCn1c(=N)n(CC(O)COc2ccccc2OC)c2ccccc21 (configuration not stated)	-1.37%
O=C(c1ccco1)N1CCN(Cc2ccc(F)cc2)CC1	active: 57.6%
COc1ccccc1Nc1nc(-c2sc(N)nc2C)cs1	active: 37.7%
Cc1nn(CC(=O)N2CCN(c3cccc(C(F)(F)F)c3)CC2)c(=O)c2cc3sccc3n12	15.6%
CCOc1ccc(NC(=O)c2c(Nc3ccccc3C)sc(C(=O)c3ccc(Cl)cc3)c2N)cc1	1.95%
CCc1ccc(Sc2cc(C(=O)O)c3ccccc3n2)cc1	6.09%
COc1ccc(-n2nc(C(=O)N(C)c3cc(Cl)ccc3OC)c3c4ccccc4n(C)c3c2=O)cc1	-9.72%
COc1ccc(Cc2noc(-c3ccccc3)n2)cc1OC	active: 33.2%
CCOc1ccccc1NC(=O)C1=C(C)Nc2ncnn2C1c1ccc(NC(C)=O)cc1 (configuration not stated)	-23.7%
Cc1ccc(Cc2nc3ccccc3nc2SCC(=O)N2CCN(c3ccccc3)CC2)cc1	4.69%
Cc1nn(CCCC(=O)NCc2ccc(OC(C)C)cc2)c(=O)c2c1sc1ccccc12	-0.652%
COc1ccc(S(=O)(=O)c2nnn(-c3ccccc3F)c2C)cc1	-10.9%

Compound	inhibition
N#CC1=C2SCN(C3CCCCC3)CN2C(=O)CC1c1c(F)cccc1Cl (configuration not stated)	9.77%
O=[N+]([O-])c1cc(-c2nc(-c3ccco3)no2)ccc1NCc1ccccc1	23.4%
O=C(CCN1CCN(C/C=C/c2ccccc2)CC1)Nc1ccccc1Cl	active: 31.9%
CCOC(=O)N1CCC(NC(=O)c2ccc(CS(=O)c3cccc(Cl)c3)o2)CC1 (configuration not stated)	active: 54.1%
CCCCn1c(CCC(=O)O)ccc1-c1cccs1	active: 40.4%
O=C(NCCCc1nc2ccccc2n1Cc1ccccc1Cl)c1ccco1	-23.2%
CCN(c1ccc(Cl)cc1)S(=O)(=O)c1nnc(NC(=O)c2ccccc2C)s1	0.938%
CC(CNC(=O)C1CCN(C(=O)N2CCOc3ccc(Cl)cc32)CC1)c1ccccc1 (configuration not stated)	-10.9%
COc1ccc(-c2onc(C)c2C)cc1S(=O)(=O)NCc1ccc(C)o1	12.7%
COc1ccc(NC(=O)CSc2nc3ccccc3n2CC(=O)N2CCCCC2C)cc1 (configuration not stated)	-6.26%
COc1ccc(CCCc2nnc(SCC(=O)Nc3cccc(C)c3)o2)cc1	-3.98%
Cc1nn(CCC(=O)NCc2ccc(Cl)cc2)c(=O)c2nn(-c3ccccc3)c(C)c12	6.42%
Cc1c(Cl)cccc1NC(=O)CC(c1ccc(F)cc1)N1Cc2ccccc2C1=O (configuration not stated)	2.6%
Cc1ccc2[nH]cc(C(c3ccccc3)c3ccc(C)s3)c2c1 (configuration not stated)	-5.34%
CCC(C)NC(=O)CCc1c(C)nc2c(c(C)nn2-c2ccc(C)cc2)c1C (configuration not stated)	-3.5%
CCOc1cccc(CC(=O)NCc2ccc3c(c2)CCN3C(C)=O)c1OCC	-13.3%
CCOC(=O)c1ccc(-c2ccc(/C=C(\C#N)c3nc4ccc(C)cc4[nH]3)o2)cc1	-27.7%
COCC(C)NC(=O)c1cc2c(=O)n3cccc(C)c3nc2s1 (configuration not stated)	4.11%
Cc1ccc2c(c1)C(Cc1ccccc1F)C(=O)N2 (configuration not stated)	9.34%
CCn1cc(CCC(=O)NCc2ccc(C)cc2)c2ccccc21	-6.17%
COc1ccc(CCNC(=O)C(CC(C)C)N2Cc3ccccc3C2=O)c(OC)c1OC (configuration not stated)	0.999%
COC(=O)CN(c1ccc(F)cc1)S(=O)(=O)c1ccccc1	active: 47.5%
COc1cc2c(=O)n(Cc3ccccc3Cl)c(=O)n(CC(=O)Nc3ccc(C)c(C)c3)c2cc1OC	-1.81%
Cc1cccc(C(=O)Nc2cc(-c3nc4cccnc4s3)ccc2C)c1	-3.41%
COc1ccc(C)cc1NC(=O)C1CCN(S(=O)(=O)c2ccc3[nH]c(=O)oc3c2)CC1	12.7%

Compound	inhibition
O=C(NCc1ccccc1)C1CCCN(S(=O)(=O)c2cccc3nsnc23)C1 (configuration not stated)	-0.657%
O=C1CN(C(=O)COc2ccc(Cl)cc2)C(c2ccccc2)c2cc(Br)ccc2N1 (configuration not stated)	11.4%
CCOc1ccc(NC(=O)CN2C(=O)CC(C)Sc3ccccc32)cc1 (configuration not stated)	11%
CCn1cc2nc(SCC(=O)Nc3ccc(OC)c(OC)c3)n(Cc3ccc(Cl)cc3)c(=O)c2n1	17%
Cc1cn2c(=O)cc(COC(=O)c3cccc(NC(=O)c4ccc(C(C)(C)C)cc4)c3)nc2s1	8.43%
CC(=O)c1cccc(NC(=O)C2CCN(C(=O)c3cnn(-c4ccccc4)c3-n3cccc3)CC2)c1	18.9%
COc1ccc(-c2oc3ncn4nc(-c5ccccc5O)nc4c3c2-c2ccc(OC)cc2)cc1	-8.74%
CCOc1ccc(-n2c(/C=C/c3cccc(F)c3)nc3cc(OC)c(OC)cc3c2=O)cc1	-3.78%
COc1ccc(-c2cc(-c3ccc(F)cc3)nc3c2COc2ccc(F)cc2-3)cc1	3.57%
O=C(O)c1ccc2nc3c(nc2c1)-c1ccccc1C3=O	active: 34.1%
Cc1ccccc1-c1nc2scc(CCNS(=O)(=O)c3ccccc3)n2n1	5.89%
Cc1nn2c(=O)cc(COC(=O)c3cccc(NC(=O)CCc4ccccc4)c3)nc2s1	21.8%
CCCCC(=O)NCc1nc2cccnc2n1Cc1ccc(OC)cc1	-15.8%
COc1cccc(Nc2ccc3cc(S(=O)(=O)N4CCC(C)CC4)ccc3n2)c1	-3.42%
CCOC(=O)c1ccc(N2CCN(c3cc(C)ccc3C)CC2)c(NC(=O)Nc2ccc(CC)cc2)c1	-1.74%
CCCOc1cccc(C(=O)Nc2cccc(-c3nc4ncccc4o3)c2C)c1	12.5%
CC1(C)CC(=O)C2=C(C1)N1C(=C(C#N)C2c2ccccc2Cl)N=C(N)c2ccccc21 (configuration not stated)	active: 35.8%
CCOC(=O)COc1ccc(CC)cc1C(=O)c1ccn2nc(-c3ccccc3)cc2n1	-19.2%
COc1ccccc1C1CCN(Cc2ccc(Cl)c(Cl)c2)CC1	active: 83.7%
Cc1ccc(Cl)cc1N1CCN(C(=O)c2ccc(NC(=O)c3nsc4ccccc34)cc2)CC1	10.8%
COC(=O)C(Cc1c[nH]c2ccccc12)NC(=O)COc1cccc(C)c1 (configuration not stated)	7.01%
COC(=O)c1sccc1S(=O)(=O)N1CCN(c2cc(Cl)ccc2C)CC1	14.1%
Cc1nn(S(=O)(=O)c2ccc(C(C)(C)C)cc2)c(C)c1S(=O)(=O)N1CCCCCC1	0.754%
Cc1ccc(-c2n[nH]c3c2C(c2ccc(C(C)(C)C)cc2)NC3=O)cc1 (configuration not stated)	20%
COCCNC(=O)CCn1c(=O)c2cc(OC)c(OC)cc2n(CC(=O)Nc2ccc(Cl)cc2F)c1=O	-14.3%

Compound	inhibition
Cc1ccc(NC(=O)c2oc3ccc(S(=O)(=O)N4CCC5(CC4)OCCO5)cc3c2C)cc1C	-27.2%
Cc1ccc(OCC(=O)Nc2cccc(-c3nc4ccccc4s3)c2)cc1	-11.8%
CCOc1ccc(NC(=O)C2CC(=O)NC(=Nc3ccc(Cl)c(Cl)c3)S2)cc1 (configuration not stated)	-5.27%
Cc1c(C(=O)NCc2ccccc2)sc2nc3n(c(=O)c12)CCCCC3	5.16%
COc1cccc(CNC(=O)c2sc3nc(C)cc(C)c3c2-n2cccc2)c1OC	-8.65%
CCOC(=O)c1ccc(NC(=O)C2CCCN(c3ncnc4onc(-c5ccc(F)cc5)c34)C2)cc1 (configuration not stated)	-12%
COc1cccc(/C=C/c2nc(C#N)c(NCCc3ccccc3)o2)c1	-21.6%
COc1ccccc1CCC(=O)OCC(=O)Nc1cc(S(=O)(=O)N2CCOCC2)ccc1C	active: 33%
Clc1cccc(N2CCN(c3nc4ccccc4n4nnnc34)CC2)c1	7.5%
COc1ccc(C(=O)Nc2ccc3oc(-c4cccnc4)nc3c2)cc1	9.51%
COc1ccccc1-c1nc(SCC(=O)NCc2ccc(C)cc2)c2c(=O)n(C)c(=O)n(C)c2n1	10.5%
Cc1ccc(NC(=O)CNC2CCCCC2)cc1Cl	active: 30.3%
Cc1cccc(CN2C(=O)N(c3ccc(C(C)C)cc3)S(=O)(=O)c3ccccc32)c1	6.49%
O=C(COc1ccccc1F)Nc1ccc2oc(-c3cccc(Cl)c3)nc2c1	2.9%
Cc1ccc(-c2ccc(=O)n(CC(=O)Nc3ccc(C)cc3Cl)n2)cc1	8.57%
Cc1cc(=O)[nH]c2nnc(SCc3ccc(F)cc3)n12	-3.85%
O=C(CC(c1cccs1)N1Cc2ccccc2C1=O)Nc1ccc(F)c(F)c1 (configuration not stated)	-17.6%
COc1ccc(N2C(=O)CS(=O)(=O)C23C(=O)N(Cc2cccc(F)c2)c2ccccc23)cc1OC (configuration not stated)	4.78%
COc1ccc(Cn2c(SCC(=O)NCc3ccc(Cl)cc3)nc3ccsc3c2=O)cc1	-7.7%
CCOC(=O)c1ccc(-n2c(CCC(=O)O)ccc2-c2ccc(Br)cc2)cc1	-13.4%
O=C(NCc1cccs1)c1ccc(Cn2c(SCc3ccccc3)nc3cccnc32)cc1	13.1%
O=C(Nc1c(C(=O)N2CCN(c3ccccc3)CC2)oc2ccccc12)c1ccc(Br)o1	-9.77%

Reference: PubChem BioAssay AID485344 (National Center for Advancing Translational Sciences (NCATS), 2010)
